Source: the supplement of paper PMC11417369
The other results are listed elsewhere or left out.

System: PfHDP1 homeodomain (GST-tagged)
Assay: gcPBM binding intensity (ln(normalized median fluorescence intensity)); higher = stronger DNA binding
Summary of the method: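 GST-tagged P. falciparum DNA-binding domains, expressed in E. coli (about 25 μg on average), were applied for 1 h to an Agilent 4 × 180k array of primer-extended double-stranded 36-bp intergenic genomic probes plus negative controls. The binding buffer was 1× PBS with 1% milk, 0.2 mg/ml BSA, 0.5% salmon testes DNA and 0.03% Triton X-100. Bound protein was detected with Alexa488 anti-GST antibody and scanned at 488 nm. Binding intensity is the highest Masliner-normalised natural-log median intensity across replicate spots of either probe orientation.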

Sequence	gcPBM binding intensity (ln)
ATACAATACACCGAACGTACATAAATCTATCTTTTA [XGTACX_site3668]	7.02
TATATATATATAATTTGTACATATATATGTAACAAT [XGTACX_site8728]	8.94
TTCTGCTACCACTTGAATGTCAATGAAATTAAAAAA [CACACA_negctrl_site1164]	6.6
AAAGAAATAAAAAAAAGTACACAATTATAAATATAT [XGTACX_site3428]	6.62
GTATGTAATATTTTAGTGCAAAAAAAAAAAAAAAAA [GTGCAC_site9790]	9.58
AAAATACTTTGAATTTGTACATATAGACATAATATT [XGTACX_site6181]	6.43
CGCGAACATACATACACACACATATTTATATAGGTA [CACACA_site6241]	6.69
ATAATAAATGATAGCACACATATGTACATATATACA [CACACA_site864]	6.75
AATACCGGAAAGCAAACACACATTTTAAAACCATAA [CACACA_site3862]	6.73
GATTATCTATCGCTTGAATGAAATGAAATCATGCAA [GTGCAC_negctrl_site471]	6.09
AAATAAAATAAAAGCACACAAAATGTAAATAATTAT [CACACA_site2775]	6.63
AACATACCCATATACACACACACATAAATACAGATA [CACACA_site4744]	7.09
CAAAACAAGCAAAAATGTACTTGATAAATATTTTCT [XGTACX_site1776]	6.27
ATGTTAATCATTAAAAATAAAGTTTAATATAAGAAT [XGTACX_negctrl_site155]	6.49
ATTTAATTCTTTTGTTATAAAATTTTAGTATATATA [CACACA_negctrl_site1649]	6.81
AAATATAAAAAATATACACACATATAAAATCTATAT [CACACA_site7406]	6.33
TTTTAAAAAAAACAAAAACATTGTCATATGGAAAAT [CACACA_negctrl_site297]	6.75
GTATGTTAATTTAATTGTACAAAAAGATACACTGAT [XGTACX_site5710]	6.81
AGGAACAATATATTTGCACACAAAAAATATATATTT [CACACA_site3316]	10.4
CAAAAAAAATTATACACACACACACCGATATATATA [CACACA_site4719]	6.97
TTTATATATCAATACATTATGTATTAAGTCTTACAT [TGCATGCA_negctrl_site499]	6.44
GGTATATAAAAATATTGTACGAAAATATGCATATAA [XGTACX_site2501]	6.96

Sequence	gcPBM binding intensity (ln)
TTTTAATTAAAAAAATATATAATAAAATTAAATTAT [CACACA_negctrl_site95]	6.05
ATTATTGTTGTTCATGTACACACTATAATAAAAGCA [CACACA_site4168]	6.71
TTTATATTGATATATACACACATATACATCCTATTT [CACACA_site7442]	6.64
TTTTGCAATAATGTTGCACACTAAATAGTCATATAT [CACACA_site7977]	10.3
ATTAATTATTTCAATGCATGTGAACACTATATATAA [TGCATGCA_site600]	7.04
TAATTAAAATTATCTACACACCTTTATAAATATATA [CACACA_site3928]	6.26
CTTATTAAAATTATTTGTACACAATATGTAAAAGTA [XGTACX_site7237]	6.47
AAAAAAAGTTGATACTGTACTCGTGCATTATGAATA [XGTACX_site5558]	9.82
AGGTATTTTCTTGTGACACACATATATATATATATT [CACACA_site2220]	7.15
CATATAAAAAATATGGTGCAGTTTTTTTTTTTTTTT	6.86
TATATATATAATGTTTGTACATATTAAATATATATG [XGTACX_site407]	7.53
TAAATATTTTTATGGGTGCGTTCTTTAGCGCAATTT	6.92
TATATAAATATATATACACACAAAAAAAAAAAAAAA [CACACA_site1406]	6.49
TATATCTTAATATACACACACACATATATATATATA [CACACA_site4968]	9.29
TAAATGAAAACCATTAGTACTTATACTGATAAATGT [XGTACX_site763]	6.07
TAAATACAAAAATGTACACACATATATATATTTTTA [CACACA_site3503]	6.38
CGGCACATTATATATACACACATATAAATATATACA [CACACA_site8086]	6.83
TAAATTTTAATATGCACACAAAATGTTATATTAAAA [CACACA_site4366]	9.86
TTGTATATTATATGTACACACAATAAGTTAATATAA [CACACA_site909]	6.63
ATAATATATTTTTGAACACACAATATAGATTTATAT [CACACA_site7857]	6.35
TTCCTTTGTCCTAACTGTACTCAAATTTATTAGTGG [XGTACX_site226]	7.04
AAAAATAAAATAATATGTACATATATAATATATATA [XGTACX_site4786]	7.09

Sequence	gcPBM binding intensity (ln)
TATTCGAAAATTATTCAAATTATCTAACATATTATT [TGCATGCA_negctrl_site70]	5.96
TAATTTTTTAGACACACACACATATAAATATAAATA [CACACA_site6195]	6.88
AATTGGAAACAACCAAAAAAATTAAAGTTGTATCCT [CACACA_negctrl_site565]	6.06
ATTTATATAAAGAATGTACACACAGAAATGCACCCA [CACACA_site8715]	10.7
AATATTAAATGAAAAAGTACAAACAGTCCTATATTA [XGTACX_site1926]	6.05
AAAAAAAAAAAACATACACACAAATAAATACATACA [CACACA_site6073]	6.8
CGTATGCACAAATTATGTACTTATATATATATATAT [XGTACX_site2348]	10.9
TATATATATAAGTGCACACTGAACCAAGAAAATTAT [CACACA_site3008]	9.71
CGGCACATTATATATACACACATATAAATAAATACA [CACACA_site4477]	6.74
GGATTGATAAGTGGTACACACATATAGATTATAGAT [CACACA_site7367]	6.43
AAAAAAAAAAAAAATTGTACATAATAAAAATATGGA [XGTACX_site3189]	6.35
TGTTTATTCTTTAAATATTATTCAAATACTACAAGT [CACACA_negctrl_site746]	6.04
AGCAACCTGAAAAAATTACTCTTTCTTAAACAAATT [XGTACX_negctrl_site266]	5.78
CACAGACACGGACACACACACACACCCATATATATA [CACACA_site4354]	7.17
ATACAAGAATTAAACACACACAAAATATAAATTCTT [CACACA_site3005]	6.79
TTAAGGATTAAGGTGTGTACATATAAATATTATATA [XGTACX_site7532]	6.56
ACCTGTAAAAATGTTTATATATATATATATATATAT [CACACA_negctrl_site1500]	9.36
ATATATCAATATAAAAGTACAAACAAAAAATAATCA [XGTACX_site7559]	6.82
GATATATACTCCATCACACACCAAAAAGAAAAAAGA [CACACA_site7242]	6.67
AATTAATGGGTACATACACACATATATACCTACATA [CACACA_site4572]	6.37
TCCATTTATAAATTAGCATGCAATCTATGTCTGATA [TGCATGCA_site1045]	6.72
ATCAAAAGAAAACACACACACATACAGATATATATA [CACACA_site5974]	6.88

Sequence	gcPBM binding intensity (ln)
CCATCTAAACACAACTCGAGTTGGATGTGTGAACTT [XGTACX_negctrl_site83]	6.38
ATATATATATATATATGTACATATTTCTCCATTTTT [XGTACX_site2869]	9.34
AAACCGTGGGAGCACACACACACACCGACACATATA [CACACA_site4338]	6.97
GCATTGTCCATGCGCACACACTACTAGAATAATATG [CACACA_site5932]	7.66
TGCAATTGTAAAGGCGCACACATATATATATATATA [CACACA_site4894]	9.24
GTTTTTTATAATTGTAGTACAAGAAGATATTTTTAT [XGTACX_site5443]	6.43
CATATTTTTATAAATTGTACGTATATTATATATATA [XGTACX_site1816]	7.14
GAGAAGACATTACACAGTACCCAGTAACTCTACGGA [XGTACX_site2000]	6.11
AAATTGGGGCTTGTTACACACTTAGTGCGAGTTCTA [CACACA_site582]	6.59
GATTATTATGTCCATGCATGTTAATATATATTAATT [TGCATGCA_site837]	7.13
GAAATTTTATTTCGGCGGACAAATGTATACTTTCTT [XGTACX_site4238]	6.13
TTTTAAAAAACAAACACACACGTAGAAAAAAAAAAA [CACACA_site4608]	6.51
AAAATATATATAAATGCATGCATAATGAAATATATA [TGCATGCA_site39]	6.83
CTGTATAAAACCAATGCATGTAAATATATTAATATA [TGCATGCA_site511]	7.14
TGAAAAGGAAATTGTTGTACATATGTTTCTTCCTAA [XGTACX_site3932]	6.25
AATAGCAATTTGGGGTGTACACACACCTTATTTAAA [XGTACX_site2234]	6.36
CCATTATATCTAAGTACACACATTAATTTTTTTTTT [CACACA_site6115]	6.58
TATATATAAATATTCAGTACATAGTGCTATTAAGTG [XGTACX_site1979]	6.7
AGAAATTAATCGAGGTGTACGTACATCCAAATATAT [XGTACX_site7650]	6.86
ATATATTTAACAAGATGTACAATTTTATAAAAAATA [XGTACX_site2351]	6.41
TTTTTATAAAAAAATAGTACTCGTCTAATCTTATGT [XGTACX_site8532]	6.41
ATACATCAAGGACACACACACACACGCACACGCACA [CACACA_site6310]	7.54
